Laboratory results from the supplement of paper PMC10126150.
Values marked as one replicate rest on one cluster of the flow cell; about a third of the high ones do not repeat.

System: ATP
Assay: switch fluorescence ratio, 500 uM ATP over buffer (Cy3 cluster intensity, sum of 5 cycles each) (fold (ratio)); higher = stronger signal-on switching upon ATP binding; sequences stand for … in TCGTCGGCAGCGTCAGATGTGTATAAGAGACAGTTTTTTTTTTTTTTTTTTTTTTTTT…TC
Details: aptamer strand: ATP DNA aptamer (quencher-CACCTGGGGGAGTATTGCGGAGGAAGG + anchor), 100 nM annealed; ATP concentration: 500 uM; one replicate
Summary of the method: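 Exposure to 500 uM ATP lasted 15 min at 22 °C before imaging, and a selection-buffer image was taken beforehand, for Cy3-labelled switching-strand clusters on a modified Illumina MiSeq flow-cell annealed to 100 nM quencher-labelled ATP aptamer. Five buffer/ATP cycles were run with NaOH stripping and re-annealing between them. The fluorescence ratio per cluster is summed target-cycle over summed buffer-cycle Cy3 intensity, averaged per switch-domain sequence. Clusters outside 100-1000 RFU were excluded.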

| Sequence | switch fluorescence ratio |
| --- | --- |
| GGCTCGAAAT | 1.08 |
| CGATTCTGTC | 1.11 |
| GTAGTAATGG | 2.58 |
| AAGCGCCGGG | 0.983 |
| ATTGCCCGCT | 1.03 |
| CTACCTTAT | 1.11 |
| AGCACGAGTA | 1 |
| GATAGCAAAA | 0.919 |
| TCCTAGGGA | 0.993 |
| GTGTAAAGGG | 1.03 |
| GTTGTAGGCA | 0.994 |
| ATCGCTACCG | 0.983 |
| GAATCCGTGG | 1.05 |
| ATCTGATTAA | 0.994 |
| TTTATAGATA | 0.989 |
| ATCATGATAA | 1.02 |
| ATCATAGAGT | 1 |
| GGCCGTAGCA | 1.06 |
| TCTGGCTGTT | 0.973 |
| TAGAGGGTAG | 1 |
| GAGACCTGTG | 1.02 |
| AATTTGAGTT | 0.977 |
| CGAGTCCGTC | 1 |
| CGCCGCCAGT | 2.1 |
| AAATCTTAGC | 1.02 |
| GCAGGTGGGT | 1.26 |

| Sequence | switch fluorescence ratio |
| --- | --- |
| CACTTGGTCT | 0.946 |
| AGGACCTAAA | 1.05 |
| TTTGTAATGC | 1.45 |
| ACCACAATGG | 1.11 |
| ATGCCTCCCG | 1.16 |
| ATGCCCCACC | 1.04 |
| GCATTCGTTT | 0.957 |
| ATTAAATCGC | 0.994 |
| GCGGAGGTT | 1.01 |
| ACAGCACCAG | 1.28 |
| CAGATCGTCT | 1.05 |
| ATTTTCGTAC | 1.01 |
| CCGGCGTTGA | 1.13 |
| AGCGGCTTAG | 1.11 |
| GCATCTAAGT | 1.05 |
| TAAGTATGAT | 0.96 |
| ATATGGTCGA | 1 |
| GGGGATCACC | 1.01 |
| ACGAATTTAA | 1.04 |
| ATACCAAGGG | 0.964 |
| CCGTCACGTC | 1.33 |
| GCCTGAATTG | 0.996 |
| CTGGGGAAG | 0.994 |
| CTCCTATAGG | 1.07 |
| ACGATAAGGA | 1.03 |
| GTCTGACCGA | 1.06 |

| Sequence | switch fluorescence ratio |
| --- | --- |
| TGATGGTTTG | 0.997 |
| CCAGCTGCC | 1.15 |
| TGAAAAAAGC | 1.02 |
| CCGCGTCAAT | 3.9 |
| TTGATTGTAT | 0.995 |
| GTTGTCGTCA | 1 |
| TCTTTTTTCG | 1.02 |
| CGGTACTGGT | 1.01 |
| GGACACGACA | 1.19 |
| TAGAATTCCA | 1.04 |
| GAACTGAACG | 1.1 |
| AATGTGGTCA | 0.956 |
| TGGTATTGTT | 1 |
| CCTAAAACAT | 1.02 |
| GGTTTATCGC | 1.01 |
| GCTTGCAGGT | 0.997 |
| TGTCGGGGC | 1.05 |
| AAAATTGA | 0.975 |
| GAGCTAAACT | 1.13 |
| AATGTTTAAC | 1.01 |
| AGCGGCTTCG | 1.08 |
| ATACCACATT | 1.08 |
| ATGTAGGCAA | 1.21 |
| ATTAGCCTTG | 1.04 |
| TATTGCCGCC | 0.972 |
| AATCAGGTGG | 1.01 |

| Sequence | switch fluorescence ratio |
| --- | --- |
| TTGTTCACGT | 0.966 |
| CGCGGTAAA | 1.03 |
| CTGATCGGTT | 1.01 |
| ATTGGTATAC | 1.02 |
| GAAAGCGAGG | 0.979 |
| ACATTGTTGC | 0.988 |
| CAGAGGGCAT | 1.05 |
| CGGATGTGGG | 0.983 |
| ATGGGCTCTA | 0.992 |
| GGGGCTAAAA | 1.03 |
| TAAATCGCCC | 1.12 |
| TGGAAACGGG | 1 |
| AATCTTTGAC | 0.948 |
| CGGCAGAGCG | 1.03 |
| ATTCAAGCTG | 1.03 |
| CGTCTAGTTC | 0.999 |
| ATGCTTCTTG | 1.02 |
| ATCGTTCACG | 0.985 |
| CCCTGGGCAA | 3.77 |
| CGCATTTGAG | 1.14 |
| CCTTGCTTGA | 1.03 |
| CTCGACAGC | 1.06 |
| TATGTCGACT | 1.03 |
| TCCGGTGTTA | 1.11 |
| GGGTACAATG | 1 |
| GTTGGATCA | 1.01 |

| Sequence | switch fluorescence ratio |
| --- | --- |
| ATCAGTTTGT | 1.02 |
| CGTACGTGCG | 0.997 |
| GAGCTACCGG | 0.998 |
| AGGACGGCTA | 1.01 |
| TCCTGGACCA | 0.984 |
| GGGCGCGTAG | 1.03 |
| TCGCATCGT | 1.04 |
| GTCACAGTGG | 0.988 |
| GGGGCCATAG | 1.01 |
| GATTGGTGAA | 0.985 |
| AGGTCTACA | 1.06 |
| ATAACTCAGG | 1.11 |
| CGGAATGGAT | 0.947 |
| CGCTAGAAGA | 0.983 |
| TTGCAATCTT | 1.11 |
| GTGACATAGG | 1.06 |
| ATTGTTAATA | 0.991 |
| TTCTTGGGCA | 1.03 |
| ATGGTTCTGA | 0.997 |
| AGCAGGGGAT | 1.87 |
| CCAATGTGTC | 1.08 |
| ATTCAAAGGG | 0.992 |
| ACTCTAGCTT | 1.22 |
| ATTTTCTTG | 0.973 |
| TCCGGTGGT | 0.992 |
| ATGTCTATCA | 1.05 |

| Sequence | switch fluorescence ratio |
| --- | --- |
| CGATATGCAT | 1.03 |
| TGGTTTTATG | 1.06 |
| TTCAATTACA | 1.01 |
| TTTAGACACA | 1.02 |
| GACAAGGGGT | 1.08 |
| AAGAACGAGG | 1.02 |
| TCCGGCGCTG | 1.52 |
| GATGCTGGGG | 0.97 |
| GCCTTTAAAA | 1.01 |
| AAGCCTT | 1.15 |
| AGTGTCGTCG | 0.969 |
| TAGCCCGGA | 1.01 |
| AATTGTTACG | 1.02 |
| GAAATCAAG | 1.01 |
| ATGCCTAGCC | 0.991 |
| ATCTTGTAG | 1.02 |
| GCTGTGGCTA | 0.979 |
| GTCGTTTCTT | 0.95 |
| TGATAAACAG | 1.04 |
| GCGTCACATC | 1.11 |
| TGGAGGTCGG | 1.01 |
| ATGTTCTGTG | 0.973 |
| CAATCGGCTT | 1.04 |
| TATAAAAGCG | 1.03 |
| CCTTAAGTAA | 2.11 |
| CAATTCTTAG | 1.01 |

| Sequence | switch fluorescence ratio |
| --- | --- |
| ACATGGGTTT | 0.973 |
| TCAAGTGTGG | 1 |
| TGATATCCAA | 1.02 |
| CCTAGTGTGG | 1.01 |
| GAATGGTGTA | 1.01 |
| TTACTCCGTT | 2.04 |
| GAGGCGAAGA | 0.999 |
| GGGTTTCCTC | 1.07 |
| TTTTCAGTAA | 1.18 |
| CGCATATGCT | 2.13 |
| CTTCGTCTAG | 1.19 |
| TGGTTAGTG | 0.985 |
| TTATATCGAT | 1.01 |
| AGTTCGTATT | 0.985 |
| GACATCATAG | 0.999 |
| TGACTGTACT | 1.53 |
| TTGGCGGTCT | 1.04 |
| CCGCGGACAT | 1.02 |
| TTCGTTTCG | 0.974 |
| AACGACAGAG | 1.02 |
| CGCGTATGCC | 1.01 |
| GTAATATGCT | 1.01 |
| AGGATTAG | 1.03 |
| ACATTTGTGA | 1.04 |
| CTGGTAGCTG | 0.819 |
| GGTGTAAAGT | 0.998 |

| Sequence | switch fluorescence ratio |
| --- | --- |
| CCCAGTTGGT | 1.14 |
| CGTGGGTCGG | 0.977 |
| GGTTAACCGC | 0.998 |
| GGGATGTGCA | 1.02 |
| CTCTTGA | 0.944 |
| AGTTTGCAGC | 0.969 |
| ATATAGGTCC | 1.06 |
| ACGACTCCAA | 1.4 |
| AATAAGTTGC | 0.983 |
| GATTATTTCT | 1.01 |
| TGCGCTCTGC | 1.12 |
| CGGTGAGGTG | 1.05 |
| GTATAAGCAC | 1.21 |
| ACGTTCCCTT | 1.04 |
| TTCACTTCGG | 1.01 |
| GTGTGACAGT | 0.987 |
| ATGTACTTCT | 1.02 |
| ACATCACTGC | 1.33 |
| TGCGAGTATA | 1.01 |
